± gives the standard deviation of the averaged measurements. This is one part of the list.
The sequences below were run on PfAP2-I AP2 domain 3 (GST-tagged) (assay: gcPBM binding intensity (ln(normalized median fluorescence intensity)); higher = stronger DNA binding).
Summary of the method: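 In this array assay, P. falciparum DNA-binding domains with a GST tag, expressed in E. coli, were applied for 1 h to primer-extended double-stranded 36-bp intergenic genomic probes and negative controls on an Agilent 4 × 180k array. Bound protein was visualised with Alexa488 anti-GST antibody at 488 nm. Binding intensity is the highest Masliner-normalised natural-log median intensity across replicate spots of either probe orientation.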

Sequence	gcPBM binding intensity (ln)
AAAAAAAAATATATATATATATATATATTTATGTAT [GTGCAC_negctrl_site483]	7.92 ± 0.5
AAAAAAAATAAAAATAGTACTCAAAAAATTATGAAT [XGTACX_site3073]	7.58 ± 0.43
ATATTAATTTCTTATGCATGTTCTACCAAATTGTAT [TGCATGCA_site38]	8.16 ± 0.93
TTATTTATTTTTATATGTACACAAAAAAAAAAAAAA [XGTACX_site1459]	8.29 ± 0.35
AATATATATAACGTTGGTACACAAAAATTATTAAAT [XGTACX_site8572]	7.97 ± 0.61
TTTTTTTTTTTTTTAACACACATATATATATTTTTC [CACACA_site1922]	8.19 ± 0.35
CCTCATCCACTATGCACACAAAAAAGAAATACACTA [CACACA_site3422]	9.295 ± 0.092
TTCTCAAATATAATAAAATTATAAAGTGACCTAACT [GTGCAC_negctrl_site493]	7.53 ± 0.47
TAATGGATTATACGTGCACACATATATACAAATAAA [CACACA_site8116]	10.97 ± 0.035
TTTGGAATATAATATTGTACATATTATATATATATA [XGTACX_site3187]	9.01 ± 0.28
TTTTTTTTTAAATATACACACACATTTATACATATA [CACACA_site9122]	7.85 ± 0.62
AATGTATTTATTTTTTGTACATATCGTGTGTGTATT [XGTACX_site1009]	7.95 ± 0.35
TTCTATTATGTGACTCAATTCTTCATGGGTGTATAA [TGCATGCA_negctrl_site140]	7.68 ± 0.38
GGAAAGACATTACACAGTACCCAGGAAATCTACGGA [XGTACX_site2002]	7.61 ± 0.69
TAATATTTATTCTATTGTACATAAAATATATATATA [XGTACX_site7132]	8.73 ± 0.35
ATAAATAAAAAACACACACACACACCCAAAAAAAAA [CACACA_site2624]	8.33 ± 0.45
ATTATATATGTATAAATATGCTATATATATATATAT [GTGCAC_negctrl_site430]	9.4 ± 0.58
TCAACATTTAAAAATAGTACTCATAAACCTTTCGAA [XGTACX_site4111]	7.42 ± 0.46
TATACATATGTATGCACACATACATACACATAGAAT [CACACA_site3480]	8.8 ± 0.13
TATATTATTTAAAAAGTGCAGTTACAAGATGAACCT [GTGCAC_site9641]	9.27 ± 0.13
ATTGATTTTTAATATACACACATAAGGACCACAAAA [CACACA_site4344]	8.48 ± 0.26
AGAGAATATTTCCACACATGCAAATGTTATATGTAA [TGCATGCA_site282]	10.4 ± 0.7

Sequence	gcPBM binding intensity (ln)
AATTATATTAATTCTTCATTACATTTTAAAATATTA [XGTACX_negctrl_site510]	7.64 ± 0.69
AATACGCATTTTAGTACACACTTAAAAAGTTATTTT [CACACA_site7401]	8.12 ± 0.3
TTATAATATAAAAATAAATAAATAAATAAATAAATA [CACACA_negctrl_site1587]	8.21 ± 0.84
TGCTATTATTTATGTACACACCAATTTATTTATAAT [CACACA_site6029]	8.39 ± 0.24
TTCGTTATATTTTGATGTACTGATTCATATATATAT [XGTACX_site1835]	8.96 ± 0.085
TATATATAATATACATGTACAAATGTATTTAAAAAT [XGTACX_site6090]	7.66 ± 0.56
TCATATTTGCCTTTTTATTTAGAACACAAAAAAAAA [CACACA_negctrl_site1152]	7.91 ± 0.24
CAAAAAAAGAAAGCTACACACATTTATGTGCTATAT [CACACA_site2777]	8.26 ± 0.28
AGAAAATACACGCATACACACACACCCACCCACATA [CACACA_site8115]	8.15 ± 0.58
ATTCGGATATATATCACACATAACTTTAATAATATA [CACACA_site5720]	7.76 ± 0.59
ATTATAATAGTTAAATGTACACACTAACTACATGGA [XGTACX_site6918]	7.82 ± 0.48
AATTAAAAATTCAAGTGTACTTTTATATTATTATAC [XGTACX_site4106]	7.91 ± 0.23
TAAATAGCCAAACGCACACCCACAAAAAAAAAAAAA [CACACA_site1554]	8.83 ± 0.17
AAAATAACGAGTCAAACACACATATATATATATATA [CACACA_site2039]	9.28 ± 0.17
AGCATAAACAATTTTTGAAAAAATATACACTCATAG [CACACA_negctrl_site890]	7.76 ± 0.6
TATATATATATATACACACACACAAAAAAAAAAAAA [CACACA_site1505]	9.58 ± 0.35
TCTACAAGGCTTGATCGTACAATTTGAATGTATTTG [XGTACX_site7698]	7.3 ± 0.49
CTCAACATATACGTAACACACATATATATATATATA [CACACA_site3838]	9.28 ± 0.53
TATGCAAGGAACCACACACACACACCCAAATGTATA [CACACA_site750]	7.75 ± 0.56
AGATTATATATATGTATATATGTATATATTTATATA [CACACA_negctrl_site1797]	7.25 ± 0.23
TATCTCTCTTTCTGCTGTACATAAAAATTATATAAT [XGTACX_site5961]	8.41 ± 0.35
AACATATTTTTAAATACACACACATAAAAAAAAAAA [CACACA_site8279]	8.06 ± 0.58
